Drawing on article PMC12820563, “FoxP3 forms a head-to-head dimer in vivo and stabilizes its multimerization on adjacent microsatellites”, this text covers binding signal for 32 sequences.

The other results are listed elsewhere or left out.

The experiment addresses T1, MBP-FoxP1dN (Mus musculus, UniProt P58462 326-579).
T1 sequence: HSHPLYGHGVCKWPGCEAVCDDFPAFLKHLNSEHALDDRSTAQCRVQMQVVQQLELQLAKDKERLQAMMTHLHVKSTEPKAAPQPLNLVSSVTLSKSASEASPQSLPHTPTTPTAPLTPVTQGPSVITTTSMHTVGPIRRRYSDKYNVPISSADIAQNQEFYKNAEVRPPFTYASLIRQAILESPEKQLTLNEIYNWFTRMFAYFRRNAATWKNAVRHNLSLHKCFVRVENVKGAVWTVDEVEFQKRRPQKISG
As to the kind of experiment: PD-seq (MBP pull-down with sequencing); 20 mM Tris-HCl pH 7.5, 100 mM NaCl, 1.5 mM MgCl2, 0.4 uM protein, 0.1 uM dsDNA library, 30 min, room temperature, amylose pull-down; high values mean tight binding. To be noted: protein: recombinant; tags: His6-MBP; chain copies: 2; dsDNA, one strand shown. The method in brief: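 Binding is the reads-per-million enrichment of pull-down relative to input, pooled across replicates. For this, 0.4 µM His6-MBP-tagged mouse FoxP3 or FoxP1 fragment lacking the N-terminus, made in E. coli, was incubated with 0.1 µM Klenow-filled double-stranded degenerate DNA library for 30 min at room temperature in Tris pH 7.5 buffer with NaCl and MgCl2. Complexes bound to amylose resin were washed three times before proteinase K released the DNA for PCR barcoding and Illumina sequencing.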
Turning to “GATGATTGTTCTCCCAGCTGATGAATTCATCGTCTCGAGTAAACAAATTTTCCTAATCTTTCTGTTCAAGCGCCATCTAC”, the binding signal is 0.784 RPM ratio (pull-down/input).

“GATGATTGTTCTCCCAGCTGATGAATTTAGTAAGTCGAGTAAACAAATTTTCCTAATCTTTCTGTTCAAGCGCCATCTAC”: the binding signal was 0.999 RPM ratio (pull-down/input). Then “GATGATTGTTCTCCCAGCTGATGAATTCGGCCTGTCGAGTAAACAAATTTTCCTAATCTTTCTGTTCAAGCGCCATCTAC”, with 0.781 RPM ratio (pull-down/input). Then “GATGATTGTTCTCCCAGCTGATGAATTGGGTCGTTCGAGTAAACAAATTTTCCTAATCTTTCTGTTCAAGCGCCATCTAC”, with 0.818 RPM ratio (pull-down/input); and “GATGATTGTTCTCCCAGCTGATGAATTTCGTTTCTCGAGTAAACAAATTTTCCTAATCTTTCTGTTCAAGCGCCATCTAC”, with 0.854 RPM ratio (pull-down/input). Then “GATGATTGTTCTCCCAGCTGATGAATTAGATGTATCGAGTAAACAAATTTTCCTAATCTTTCTGTTCAAGCGCCATCTAC”, with 1.19 RPM ratio (pull-down/input). As for “GATGATTGTTCTCCCAGCTGATGAATTTGATGGATCGAGTAAACAAATTTTCCTAATCTTTCTGTTCAAGCGCCATCTAC”, the binding signal is 0.898 RPM ratio (pull-down/input).

“GATGATTGTTCTCCCAGCTGATGAATTTAATATCTCGAGTAAACAAATTTTCCTAATCTTTCTGTTCAAGCGCCATCTAC”: the binding signal was 0.927 RPM ratio (pull-down/input). Then “GATGATTGTTCTCCCAGCTGATGAATTGGGGGCGTCGAGTAAACAAATTTTCCTAATCTTTCTGTTCAAGCGCCATCTAC”, with 0.886 RPM ratio (pull-down/input). The same measure for “GATGATTGTTCTCCCAGCTGATGAATTATCTGTCTCGAGTAAACAAATTTTCCTAATCTTTCTGTTCAAGCGCCATCTAC”: 0.945 RPM ratio (pull-down/input); for “GATGATTGTTCTCCCAGCTGATGAATTTTGACTATCGAGTAAACAAATTTTCCTAATCTTTCTGTTCAAGCGCCATCTAC”: 1.03 RPM ratio (pull-down/input). Then “GATGATTGTTCTCCCAGCTGATGAATTGCCAACTTCGAGTAAACAAATTTTCCTAATCTTTCTGTTCAAGCGCCATCTAC”, with 0.959 RPM ratio (pull-down/input); and “GATGATTGTTCTCCCAGCTGATGAATTGTTGATCTCGAGTAAACAAATTTTCCTAATCTTTCTGTTCAAGCGCCATCTAC”, with 2.06 RPM ratio (pull-down/input). On to “GATGATTGTTCTCCCAGCTGATGAATTCATCAGTTCGAGTAAACAAATTTTCCTAATCTTTCTGTTCAAGCGCCATCTAC”, for which the binding signal was 0.914 RPM ratio (pull-down/input).

With “GATGATTGTTCTCCCAGCTGATGAATTTTTCGGCTCGAGTAAACAAATTTTCCTAATCTTTCTGTTCAAGCGCCATCTAC”, the binding signal was 0.799 RPM ratio (pull-down/input). Then “GATGATTGTTCTCCCAGCTGATGAATTGACTTGTTCGAGTAAACAAATTTTCCTAATCTTTCTGTTCAAGCGCCATCTAC”, with 1.08 RPM ratio (pull-down/input); and “GATGATTGTTCTCCCAGCTGATGAATTGAGTGGATCGAGTAAACAAATTTTCCTAATCTTTCTGTTCAAGCGCCATCTAC”, with 0.83 RPM ratio (pull-down/input).

For the sequence “GATGATTGTTCTCCCAGCTGATGAATTATCGTCGTCGAGTAAACAAATTTTCCTAATCTTTCTGTTCAAGCGCCATCTAC”, the binding signal was 0.884 RPM ratio (pull-down/input). The same measure for “GATGATTGTTCTCCCAGCTGATGAATTAAAGTTGTCGAGTAAACAAATTTTCCTAATCTTTCTGTTCAAGCGCCATCTAC”: 1.42 RPM ratio (pull-down/input); for “GATGATTGTTCTCCCAGCTGATGAATTATAAGGCTCGAGTAAACAAATTTTCCTAATCTTTCTGTTCAAGCGCCATCTAC”: 1.02 RPM ratio (pull-down/input); for “GATGATTGTTCTCCCAGCTGATGAATTCCCTAGATCGAGTAAACAAATTTTCCTAATCTTTCTGTTCAAGCGCCATCTAC”: 0.854 RPM ratio (pull-down/input).

Take “GATGATTGTTCTCCCAGCTGATGAATTCCCCACGTCGAGTAAACAAATTTTCCTAATCTTTCTGTTCAAGCGCCATCTAC”: the binding signal was 0.874 RPM ratio (pull-down/input). The same measure for “GATGATTGTTCTCCCAGCTGATGAATTTTGCCACTCGAGTAAACAAATTTTCCTAATCTTTCTGTTCAAGCGCCATCTAC”: 1.03 RPM ratio (pull-down/input); for “GATGATTGTTCTCCCAGCTGATGAATTACAACCCTCGAGTAAACAAATTTTCCTAATCTTTCTGTTCAAGCGCCATCTAC”: 1.18 RPM ratio (pull-down/input).

“GATGATTGTTCTCCCAGCTGATGAATTTCTACTGTCGAGTAAACAAATTTTCCTAATCTTTCTGTTCAAGCGCCATCTAC”: the binding signal was 0.83 RPM ratio (pull-down/input). On to “GATGATTGTTCTCCCAGCTGATGAATTAAGGTATTCGAGTAAACAAATTTTCCTAATCTTTCTGTTCAAGCGCCATCTAC”, for which the binding signal is 1.03 RPM ratio (pull-down/input). For “GATGATTGTTCTCCCAGCTGATGAATTCCCAATGTCGAGTAAACAAATTTTCCTAATCTTTCTGTTCAAGCGCCATCTAC”, the binding signal is 0.873 RPM ratio (pull-down/input). Then “GATGATTGTTCTCCCAGCTGATGAATTCGAATTTTCGAGTAAACAAATTTTCCTAATCTTTCTGTTCAAGCGCCATCTAC”, with 0.906 RPM ratio (pull-down/input). The same measure for “GATGATTGTTCTCCCAGCTGATGAATTAGCGTGGTCGAGTAAACAAATTTTCCTAATCTTTCTGTTCAAGCGCCATCTAC”: 0.933 RPM ratio (pull-down/input). Then “GATGATTGTTCTCCCAGCTGATGAATTATCCGACTCGAGTAAACAAATTTTCCTAATCTTTCTGTTCAAGCGCCATCTAC”, with 0.935 RPM ratio (pull-down/input); and “GATGATTGTTCTCCCAGCTGATGAATTCTGACATTCGAGTAAACAAATTTTCCTAATCTTTCTGTTCAAGCGCCATCTAC”, with 0.898 RPM ratio (pull-down/input); and “GATGATTGTTCTCCCAGCTGATGAATTGTCATCGTCGAGTAAACAAATTTTCCTAATCTTTCTGTTCAAGCGCCATCTAC”, with 1.06 RPM ratio (pull-down/input).
